In PubChem BioAssay AID1159614 (National Center for Advancing Translational Sciences (NCATS), 2016):
About 65 (0.1%) of roughly 45,000 compounds were called active. Calls follow the shape of the dose curve; as a rule, active = well fitted activation curve with a large enough effect; inconclusive = small, poorly fitted or top-dose-only effect; inactive = no such curve, though single readings can be large or run the other way. The list shows a part of the results.

biological target: Galactocerebrosidase (Homo sapiens) (UniProt P54803); experiment: A Novel Cell-Based Assay to Identify Small Molecules for B -Galactocerebrosidase; settings: 145M-Twi-hGALC-G270D cells (Twitcher mouse brain line with human GALC G270D), HMU-beta-Gal fluorescence, 48 h; series mostly up to 57.5 µM; activation: at the top concentration; also: 0% is about no effect; nearly all actives have a fitted effect of over 65% in size
UniProt P54803, sequence (P54803 whole entry, looked up): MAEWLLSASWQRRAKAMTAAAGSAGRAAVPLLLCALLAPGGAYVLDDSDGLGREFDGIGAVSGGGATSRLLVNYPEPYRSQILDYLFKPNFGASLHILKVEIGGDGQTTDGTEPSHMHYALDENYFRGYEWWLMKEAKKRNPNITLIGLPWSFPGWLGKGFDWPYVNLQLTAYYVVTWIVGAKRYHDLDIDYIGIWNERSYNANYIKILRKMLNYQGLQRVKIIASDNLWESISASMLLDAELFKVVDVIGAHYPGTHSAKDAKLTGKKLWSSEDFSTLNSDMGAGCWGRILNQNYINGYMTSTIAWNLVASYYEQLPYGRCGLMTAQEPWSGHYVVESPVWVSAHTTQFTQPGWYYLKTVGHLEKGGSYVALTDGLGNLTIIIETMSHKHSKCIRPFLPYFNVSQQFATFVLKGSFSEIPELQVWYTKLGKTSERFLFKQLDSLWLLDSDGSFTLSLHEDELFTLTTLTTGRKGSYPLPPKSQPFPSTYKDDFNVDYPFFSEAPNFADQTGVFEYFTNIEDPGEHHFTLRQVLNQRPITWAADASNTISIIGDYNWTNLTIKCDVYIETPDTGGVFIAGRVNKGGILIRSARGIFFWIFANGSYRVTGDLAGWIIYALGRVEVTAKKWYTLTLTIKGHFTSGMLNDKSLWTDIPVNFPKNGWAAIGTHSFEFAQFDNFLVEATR
Procedure, shortened: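 Live 145M-Twi cells (Twitcher mouse brain-derived, GALC-null) stably expressing human GALC-G270D, with a wild-type GALC line, were compound-treated. Residual GALC activity was then read as fluorescence from 0.1 mM final HMU-β-gal at pH 5.2; higher signal means activation.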

activation, inactive:
CCOc1ccc(NC(=O)CSc2oc(-c3ccccc3)nc2S(=O)(=O)c2ccc(Cl)cc2)cc1 -8.81%, COC(=O)c1cc(NC(=O)c2cc3sccc3n2Cc2ccc(Cl)cc2)cc(C(=O)OC)c1 -11.7%, CCOCc1cc(CN2CCN(c3ccccc3OC)CC2)c(O)c2ncccc12 -13.2%, CCc1ccccc1NC(=O)CCCN1C(=O)CCn2nc(-c3cn(C)c4ccccc34)cc21 -16.3%, COc1cc(Nc2nc(SCc3ccccc3Cl)nc3ccccc23)cc(OC)c1 2.73%, COc1cccc(NC(=O)c2oc3ccccc3c2NC(=O)C2CCCCC2)c1 -8.48%, COc1ccc(C(=O)/C=C/c2cn(CC(O)CN3CCc4ccccc43)c3ccccc23)cc1 (centres undefined) 21.1%, O=C1NC(NS(=O)(=O)c2ccccc2)(C(F)(F)F)C(=O)N1c1ccc(F)cc1 (centres undefined) -18.2%, Cc1cc(N2CCC(C(=O)N(CC(C)C)CC(C)C)CC2)n2nc(C)c(-c3ccc(Cl)cc3)c2n1 -14.6%, COc1cc(OC)cc(-c2nc3nc(C)c(CCC(=O)Nc4ccc(C)cc4C)c(C)n3n2)c1 -8.19%, CCN(CC)S(=O)(=O)c1ccc(C(=O)Nc2nc3ccc(Cl)cc3s2)cc1 -23.2%, O=C1CCc2cc(S(=O)(=O)NCc3ccccc3Cl)cc3c2N1CC3 -17.2%, O=S(=O)(c1ccccc1)c1nnn2c1nc(NCc1ccc(Cl)cc1)c1sccc12 -16%, O=C(c1cnn(-c2ccc(F)cc2)c1-n1cccc1)N1CCN(c2ccc(Cl)cc2)CC1 -36.9%, COc1ccccc1C1C=C(c2ccc(C(C)C)cc2)Nc2nnnn21 (centres undefined) -1.99%, CSc1ncc(Cl)c(C(=O)N(Cc2ccc(C)cc2)C2CCS(=O)(=O)C2)n1 (centres undefined) -6.04%, Cc1cc(C)cc(OCc2cc(=O)n3c(-c4ccccc4)csc3n2)c1 -2.09%, Cc1cccc(CNC(=O)c2ccc3c(c2)c(C)c(C)n3Cc2ccccc2)c1 -15.6%, Fc1ccc(-n2ncc3c(Nc4cccc(Cl)c4)ncnc32)cc1 -15.5%, COc1ccccc1NC(=O)Cn1c(=O)c(CNc2ccccc2)cc2cc(OC)c(OC)cc21 -27%, CCn1nc(C)c2c(-c3ccccc3)cc(=O)n(C(C)C(=O)NCc3ccccc3OC)c21 (centres undefined) -17.2%, Cc1ccc(S(=O)(=O)c2nnn3c2nc(NCc2cccs2)c2sccc23)cc1 -13.1%, CCOC(=O)N1CCN(Cc2nc3cc(NC(=O)c4cccc(C)c4)ccc3n2C(C)C)CC1 -8.05%, COc1cccc(NC(=O)Cn2cc(S(=O)(=O)Cc3ccccc3F)c3ccccc32)c1 -7.93%, O=C(CCn1ccc2cc(S(=O)(=O)N3CCCC3)ccc21)NCc1ccccc1F 9.99%, Nc1c(C(=O)Nc2cccc(F)c2)c2ccccn2c1C(=O)c1ccccc1 -6.23%, COc1ccc(CCNc2nc(SCc3ccc(Cl)cc3)nc3ccccc23)cc1OC -1.73%, CCCCCOc1ccccc1/C(=C\SC)n1ccnc1 -45.4%, Cc1cccc(C(=O)Nc2ccc3nc(SCCOc4ccccc4)sc3c2)c1 -9.35%, CN(C)c1ccc(N=NS(=O)(=O)O)cc1 -3.11% [at 114 µM], COc1ccc(C2C=C(c3ccccc3)Nc3nc(NC(=O)/C=C/c4ccccc4Cl)nn32)cc1 (centres undefined) -12.5%, CCc1cnc2c(c1SCC(=O)NCc1ccc(F)cc1)c(=O)n(C)c(=O)n2C -16.5%, Nc1ncc(S(=O)(=O)Nc2ccc(F)cc2F)cn1 -6.27%, Cc1cc(C)c2c(c1)c(C)cc1nnc(SCC(=O)c3ccc(F)cc3)n12 -10.9%, COC(=O)c1ccccc1NC(=O)Cn1c(=O)cc(C)c2c(C)nn(C)c21 -4.91%, CCCCC(=O)N1CCc2cc(OC)c(OC)cc2C1COc1ccc(OC)cc1 (centres undefined) -16.4%, COc1ccc(NC(=O)CN2C(=O)COc3ccc(S(=O)(=O)N4CCCCC4)cc32)cc1OC 7.2%, Cc1ccc(C)c(Cn2c(C(=O)O)c(CNCc3cccs3)c3ccccc32)c1 -5.18%, COc1ccc(Cl)cc1NC(=O)Cn1c(=O)c(-c2ccccc2NC(C)=O)nc2ccccc21 -10.7%, CCOC(=O)c1c(NC(=O)COc2cccc(C)c2C)sc(C(C)=O)c1C -19.3%, COc1ccc(N2CCN(C(c3ccccc3F)c3sc4nc(-c5ccco5)nn4c3O)CC2)cc1 (centres undefined) -5.08%, CCOc1ccc(C(c2c(O)cc(C)n(Cc3ccco3)c2=O)N2CCCCC2)cc1 (centres undefined) -20.5%, Cc1ccc2cccc(NC(=O)C(C)Oc3ccc(Cl)cc3Cl)c2n1 (centres undefined) -13.3%, Cc1ccc(NC(=O)CC2Sc3ccc(C(F)(F)F)cc3NC2=O)cc1 (centres undefined) -20.9%, COc1cccc(CNS(=O)(=O)c2ccc3c(c2)C(C(C)C)C(=O)N3)c1 (centres undefined) -11.5%, COc1ccccc1C(=O)Nc1c(C(=O)Nc2ccccc2F)oc2ccccc12 3.63%, Cc1cc(-c2ccccc2)n2nc(-c3ccccc3)cc2n1 9.62%, CN(C)CCNC(=O)C(=O)NCC(c1ccc2c(c1)OCO2)N1CCOCC1 (centres undefined) -16.8%, Cc1c(C(=O)O)oc2c1-c1nn(Cc3ccc(Cl)cc3)cc1CC2 -20.7%, Cc1ccc(OCCSc2nc(C)c(Cc3ccccc3)c(=O)[nH]2)cc1 0.697%, Cc1ncc(CO)c(C=O)c1O -10.4%, CCN1C(=O)c2ccccc2C1Nc1ccc(OCCN2CCCCC2)cc1 (centres undefined) -4.75%, Cc1ccn2c(Nc3ccc(C(C)C)cc3)c(-c3cccnc3)nc2c1 -8%, Cc1cc(C)c(NC(=O)CSc2nncn3c2cc2oc(C)cc23)c(C)c1 -15.3%, Cc1cc(Cl)ccc1OCC(=O)N1CCC(c2nc3ccccc3s2)CC1 -20.6%, CC(=O)c1ccc(NC(=O)CN(C)S(=O)(=O)c2cnc[nH]2)cc1 -14.2%, COc1ccc(CNC(=O)Nc2cn(CC(C)C)c(=O)c3ccccc23)cc1 -13%, O=C(Nc1cccc(-c2nc3ccccc3o2)c1)C(F)(F)F -2.15%, Cc1ccc(-c2nc(C(=O)NCc3ccccc3Cl)c3n2CCCCC3)cc1 -5.69%, Cc1ccc(NC(=O)N2CCC(CN3CCCC3)CC2)c(C)c1 -4.56%, CCc1cccc(NC(=O)c2ccc(NC(=O)N3CCSc4ncccc43)cc2)c1 -9.94%, O=C(CCCc1ccccc1)NC1CC(=O)N(c2ccc(F)cc2)C1 (centres undefined) -4.47%, CC(=O)c1cccc(NS(=O)(=O)c2cc3c(cc2C)N(C(C)=O)CCO3)c1 -11.2%, COC(=O)c1cc(C)nc2c1c(=O)nc(SCc1ccccc1C)n2C1CC1 -26%, COC(=O)C1CCN(S(=O)(=O)c2ccc(N3CCCCS3(=O)=O)cc2)CC1 -17%, O=C1[C@H]2CCCC[C@H]2C(=O)N1CCCCN1CCN(c2nsc3ccccc23)CC1 -22%, Cc1cccc(NC(=O)C(Cc2ccccc2)NS(=O)(=O)c2ccc3c(c2)c(=O)n(C)c(=O)n3C)c1 (centres undefined) -10.7%, CCc1nn(CCCC(=O)N2CCN(c3cccc(OC)c3)CC2)c(=O)c2cc3occc3n12 3.16%, Cc1c(-c2nc(-c3ccc4c(c3)OCO4)no2)nnn1-c1ccc(C(C)C)cc1 -8.71%, Cc1ccc(C(=O)NCC(c2ccc3c(c2)OCO3)N2CCOCC2)cc1 (centres undefined) -4.88%, CCC(=O)Oc1ccc(C2Nc3ccccc3-c3nnc(SC)nc3O2)cc1 (centres undefined) -9.88%, Cc1ccc(NC(=O)N2CCN(c3cc(-c4noc(C)n4)ccc3C)CC2)c(F)c1 4.82%, Cc1ccc2nc(-c3cc(NC(=O)COc4ccc(C)c(C)c4)ccc3Cl)oc2c1 -22.5%, CN1N=C(C(N)=O)CCC1=O -18%, CCOC(=O)COc1ccc(F)cc1C(=O)c1ccn2nc(-c3ccc(Cl)cc3)cc2n1 -8.86%, CCOC(=O)c1noc2ncnc(Nc3cccc(OC)c3)c12 -12.5%, CCCn1c(=O)c2sccc2n2c(CCCC(=O)NCc3ccccc3)nnc12 0.974%, O=C(COc1ccccc1Cl)Nc1ccc2nc(SCC(=O)N3CCCC3)sc2c1 -7.48%, O=C(CCn1nc(-c2ccc(Cl)cc2)ccc1=O)NCCc1ccccc1 -4.42%, Cc1ccc(S(=O)Cc2nc(-c3ccc(C(=O)NCc4cccc(C)c4)cc3)oc2C)cc1 (centres undefined) -21%, CC(=O)Nc1c(C)nn(-c2ccccc2)c1N1CCC(C(=O)NCc2ccccc2Cl)CC1 -9.22%, CCOC(=O)c1c(NC(=O)CSc2cn(CCNC(=O)c3c(F)cccc3F)c3ccccc23)sc2c1CCC2 -8.84%, COc1ccc(CCN2C(=O)c3[nH]nc(-c4ccccc4O)c3C2c2ccc(OC)c(OC)c2)cc1 (centres undefined) -21.8%, Clc1cccc(Cl)c1NC1=NCCN1 -7.54%, COc1ccc(-c2cc(-c3ccccc3)nc(SCC(=O)Nc3ccccc3F)c2C#N)cc1 -17.4%, CCOc1ccc(-n2c(SCC(N)=O)nc3c(oc4ccccc43)c2=O)cc1 -22.9%, COc1cccc(NC(=O)CSc2nc(-c3ccccc3Cl)nc3c2Cc2c(CO)cnc(C)c2O3)c1 6.91%, CCOC(=O)C1=C(CS(=O)(=O)c2ccc(OC)c(Cl)c2)NC(=O)NC1c1cccc(OC)c1 (centres undefined) -8.55%, Cc1cc(=O)n(Cc2ccc(Cl)cc2)c2c1c(C)nn2-c1ccccc1 -7.81%, COc1ccc(OC)c(S(=O)(=O)NCCS(=O)(=O)N2CCN(c3ccccc3)CC2)c1 -8.12%, COc1cccc(CNC(=O)c2cccc(-n3c(C)nc4cccnc43)c2)c1OC -10.8%, O=C(Cn1c(=O)n(-c2ccccc2)c(=O)c2c3c(sc21)CCCC3)Nc1ccc(F)cc1F -1.8%, N#Cc1nc(-c2ccc(COc3ccc(Cl)cc3)o2)oc1N1CCC(C(N)=O)CC1 -19.2%, COc1ccc(OC)c(C2=NS(=O)(=O)N(C)C(C(=O)Nc3ccc(F)cc3F)=C2)c1 0.171%, O=C(CSc1cn(CC(=O)N2CCCCC2)c2ccccc12)Nc1ccccc1 -14.2%, Cc1ccc(C)c(NC(=O)C2CCCN(c3ncnc4onc(C)c34)C2)c1 (centres undefined) -9.43%, Cc1nc(-c2ccccc2)sc1-c1ccc(SCC(=O)NCc2ccccc2Cl)nn1 0.113%, O=C(NCc1noc2ccccc12)N1CCN(c2ccccc2)CC1 -9.62%, CCc1ccccc1NC(=O)N1CCCn2nc(C)cc21 -11.4%
